This is an account of results in patent US20110092681A1.

Assay [1] has as its target collagen. Description: collagen binding activity per mg VWF antigen; method not described.
For assay [2], the target named is collagen. Briefly: collagen binding activity of the rVWF preparation; method not described.

Values joined by “and” are separate entries in the source; they are usually repeats but may differ in a detail not shown here. Identical values can stand only once.

As for “human recombinant VWF (rVWF) (a stretch of the chain, sequence left out)”, the Specific collagen binding activity (U/mg) with collagen [1] was 88.4 U/mg and 97.9 U/mg and 70.5 U/mg. Besides, in the assay with collagen [2], the Collagen binding (U/ml) is 63.2 U/ml and 107 U/ml and 142 U/ml.
